# The supplement of paper PMC8728848
# The other results are listed elsewhere or left out.
# B1: VLRB.aGPA.23-GCN4-biotin (Petromyzon marinus) (protein)
# chain: ACPSQCSCSGTEVNCAGKSLASVPAGIPTTTRVLYLNSNQITKLEPGVFDRLANLRELHLWGNQLVSLPPGVFDNLANLEKLWLNSNQLTSLPAGLFDRLVNLEHLGLCCMKLTELPSGAFDKLTRLKQLGLDQNQLKSIPDGAFARLPSLTHVWLHTNPWDCQCTDILYLSGWVAQHSSIVGEGWPWRHSPDSAKCSGTNTPVRAVTEASTSPSKCP
# Tests used:
# Assay in all cases: glycan array binding signal (z-score within array); higher = stronger binding
# Conditions in all cases: glycan notation: IUPAC condensed, linker removed
# [1] = molecular target: Neu5Ac(a2-3)Gal(b1-4)GlcNAc(b1-2)[Neu5Ac(a2-3)Gal(b1-4)GlcNAc(b1-4)]Man(a1-3)[GlcNAc(b1-4)][Neu5Ac(a2-3)Gal(b1-4)GlcNAc(b1-2)[Neu5Ac(a2-3)Gal(b1-4)GlcNAc(b1-6)]Man(a1-6)]Man(b1-4)GlcNAc(b1-4)GlcNAc
# Procedure, shortened: (§1)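 Negative Z-scores can be read as non-binding. The Z-score is calculated within each array and then averaged across arrays of one protein sequence at different concentrations or buffers and across linkers. Arrays, 3228 in all, were curated from the Consortium for Functional Glycomics database and kept only where the protein sequence was available.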
# [2] = molecular target: Neu5Ac(a2-3)Gal(b1-4)GlcNAc(b1-2)[Neu5Ac(a2-3)Gal(b1-4)GlcNAc(b1-4)]Man(a1-3)[GlcNAc(b1-4)][Neu5Ac(a2-3)Gal(b1-4)GlcNAc(b1-4)Man(a1-6)]Man(b1-4)GlcNAc(b1-4)GlcNAc
# Procedure, shortened: as §1
# [3] = molecular target: Neu5Ac(a2-3)Gal(b1-4)GlcNAc(b1-2)[Neu5Ac(a2-3)Gal(b1-4)GlcNAc(b1-6)]Man(a1-6)[Neu5Ac(a2-3)Gal(b1-4)GlcNAc(b1-2)Man(a1-3)]Man(b1-4)GlcNAc(b1-4)GlcNAc
# Procedure, shortened: as §1
# [4] = molecular target: Neu5Ac(a2-3)Gal(b1-4)GlcNAc(b1-2)[Neu5Ac(a2-3)Gal(b1-4)GlcNAc(b1-6)]Man(a1-6)[Neu5Ac(a2-3)Gal(b1-4)GlcNAc(b1-2)Man(a1-3)][GlcNAc(b1-4)]Man(b1-4)GlcNAc(b1-4)GlcNAc
# Procedure, shortened: as §1
# [5] = molecular target: Neu5Ac(a2-3)Gal(b1-4)GlcNAc(b1-3)Gal
# Procedure, shortened: as §1
# [6] = molecular target: Neu5Ac(a2-3)Gal(b1-4)GlcNAc(b1-3)Gal(b1-3)GlcNAc
# Procedure, shortened: as §1
# [7] = molecular target: Neu5Ac(a2-3)Gal(b1-4)GlcNAc(b1-3)Gal(b1-4)GlcNAc
# Procedure, shortened: as §1
# [8] = molecular target: Neu5Ac(a2-3)Gal(b1-4)GlcNAc(b1-3)Gal(b1-4)GlcNAc(b1-2)Man(a1-3)[Neu5Ac(a2-3)Gal(b1-4)GlcNAc(b1-3)Gal(b1-4)GlcNAc(b1-2)Man(a1-6)]Man(b1-4)GlcNAc(b1-4)GlcNAc
# Procedure, shortened: as §1
# [9] = molecular target: Neu5Ac(a2-3)Gal(b1-4)GlcNAc(b1-3)Gal(b1-4)GlcNAc(b1-3)Gal(b1-4)GlcNAc
# Procedure, shortened: as §1
# [10] = molecular target: Neu5Ac(a2-3)Gal(b1-4)GlcNAc(b1-3)Gal(b1-4)GlcNAc(b1-3)Gal(b1-4)GlcNAc(b1-2)Man(a1-3)[Neu5Ac(a2-3)Gal(b1-4)GlcNAc(b1-3)Gal(b1-4)GlcNAc(b1-3)Gal(b1-4)GlcNAc(b1-2)Man(a1-6)]GalNAc
# Procedure, shortened: as §1
# [11] = molecular target: Neu5Ac(a2-3)Gal(b1-4)GlcNAc(b1-3)Gal(b1-4)GlcNAc(b1-3)GalNAc
# Procedure, shortened: as §1
# [12] = molecular target: Neu5Ac(a2-3)Gal(b1-4)GlcNAc(b1-3)Gal(b1-4)GlcNAc(b1-3)[Neu5Ac(a2-3)Gal(b1-4)GlcNAc(b1-3)Gal(b1-4)GlcNAc(b1-6)]GalNAc
# Procedure, shortened: as §1
# [13] = molecular target: Neu5Ac(a2-3)Gal(b1-4)GlcNAc(b1-3)Gal(b1-4)GlcNAc(b1-6)[Gal(b1-3)]GalNAc
# Procedure, shortened: as §1
# [14] = molecular target: Neu5Ac(a2-3)Gal(b1-4)GlcNAc(b1-3)Gal(b1-4)[Fuc(a1-3)]GlcNAc
# Procedure, shortened: as §1
# [15] = molecular target: Neu5Ac(a2-3)Gal(b1-4)GlcNAc(b1-3)GalNAc
# Procedure, shortened: as §1
# [16] = molecular target: Neu5Ac(a2-3)Gal(b1-4)GlcNAc(b1-3)[Neu5Ac(a2-3)Gal(b1-4)GlcNAc(b1-6)]GalNAc
# Procedure, shortened: as §1
# [17] = molecular target: Neu5Ac(a2-3)Gal(b1-4)GlcNAc(b1-6)GalNAc
# Procedure, shortened: as §1
# [18] = molecular target: Neu5Ac(a2-3)Gal(b1-4)GlcNAc(b1-6)[Gal(b1-3)]GalNAc
# Procedure, shortened: as §1
# [19] = molecular target: Neu5Ac(a2-3)Gal(b1-4)GlcNAc(b1-6)[Neu5Ac(a2-3)Gal(b1-3)]GalNAc
# Procedure, shortened: as §1
# [20] = molecular target: Neu5Ac(a2-3)Gal(b1-4)GlcNAc6S
# Procedure, shortened: as §1
# [21] = molecular target: Neu5Ac(a2-3)Gal(b1-4)[Fuc(a1-3)]GlcNAc
# Procedure, shortened: as §1
# [22] = molecular target: Neu5Ac(a2-3)Gal(b1-4)[Fuc(a1-3)]GlcNAc(b1-2)Man
# Procedure, shortened: as §1
# [23] = molecular target: Neu5Ac(a2-3)Gal(b1-4)[Fuc(a1-3)]GlcNAc(b1-3)Gal
# Procedure, shortened: as §1
# [24] = molecular target: Neu5Ac(a2-3)Gal(b1-4)[Fuc(a1-3)]GlcNAc(b1-3)Gal(b1-4)GlcNAc
# Procedure, shortened: as §1
# [25] = molecular target: Neu5Ac(a2-3)Gal(b1-4)[Fuc(a1-3)]GlcNAc(b1-3)Gal(b1-4)[Fuc(a1-3)]GlcNAc(b1-3)Gal(b1-4)[Fuc(a1-3)]GlcNAc
# Procedure, shortened: as §1
# [26] = molecular target: Neu5Ac(a2-3)Gal(b1-4)[Fuc(a1-3)]GlcNAc(b1-3)GalNAc
# Procedure, shortened: as §1
# [27] = molecular target: Neu5Ac(a2-3)Gal(b1-4)[Fuc(a1-3)]GlcNAc(b1-6)[Gal(b1-3)]GalNAc
# Procedure, shortened: as §1
# [28] = molecular target: Neu5Ac(a2-3)Gal(b1-4)[Fuc(a1-3)]GlcNAc(b1-6)[Neu5Ac(a2-3)Gal(b1-3)]GalNAc
# Procedure, shortened: as §1
# [29] = molecular target: Neu5Ac(a2-3)Gal(b1-4)[Fuc(a1-3)]GlcNAc6S
# Procedure, shortened: as §1
# [30] = molecular target: Neu5Ac(a2-3)Gal6S(b1-4)GlcNAc
# Procedure, shortened: as §1
# [31] = molecular target: Neu5Ac(a2-3)Gal6S(b1-4)[Fuc(a1-3)]GlcNAc
# Procedure, shortened: as §1
# Neu5Ac(a2-3)GalNAc = molecular target: Neu5Ac(a2-3)GalNAc
# Procedure, shortened: as §1
# [32] = molecular target: Neu5Ac(a2-3)GalNAc(b1-4)GlcNAc
# Procedure, shortened: as §1
# [33] = molecular target: Neu5Ac(a2-3)[GalNAc(b1-4)]Gal(b1-4)Glc
# Procedure, shortened: as §1
# [34] = molecular target: Neu5Ac(a2-3)[GalNAc(b1-4)]Gal(b1-4)GlcNAc
# Procedure, shortened: as §1
# [35] = molecular target: Neu5Ac(a2-3)[GalNAc(b1-4)]Gal(b1-4)GlcNAc(b1-3)GalNAc
# Procedure, shortened: as §1
# [36] = molecular target: Neu5Ac(a2-3)[Neu5Ac(a2-6)]GalNAc
# Procedure, shortened: as §1
# Neu5Ac(a2-6)Gal = molecular target: Neu5Ac(a2-6)Gal
# Procedure, shortened: as §1
# [37] = molecular target: Neu5Ac(a2-6)Gal(b1-3)GlcNAc(b1-3)[Gal(b1-4)GlcNAc(b1-6)]Gal(b1-4)Glc
# Procedure, shortened: as §1
# Neu5Ac(a2-6)Gal(b1-4)Glc = molecular target: Neu5Ac(a2-6)Gal(b1-4)Glc
# Procedure, shortened: as §1
# [38] = molecular target: Neu5Ac(a2-6)Gal(b1-4)GlcNAc
# Procedure, shortened: as §1
# [39] = molecular target: Neu5Ac(a2-6)Gal(b1-4)GlcNAc(b1-2)Man
# Procedure, shortened: as §1
# [40] = molecular target: Neu5Ac(a2-6)Gal(b1-4)GlcNAc(b1-2)Man(a1-3)Man(b1-4)GlcNAc(b1-4)GlcNAc
# Procedure, shortened: as §1
# [41] = molecular target: Neu5Ac(a2-6)Gal(b1-4)GlcNAc(b1-2)Man(a1-3)[Gal(b1-4)GlcNAc(b1-2)Man(a1-6)]Man(b1-4)GlcNAc(b1-4)GlcNAc
# Procedure, shortened: as §1
# [42] = molecular target: Neu5Ac(a2-6)Gal(b1-4)GlcNAc(b1-2)Man(a1-3)[GlcNAc(b1-2)Man(a1-6)]Man(b1-4)GlcNAc(b1-4)GlcNAc
# Procedure, shortened: as §1
binder,measurement,setting,value
B1,glycan array binding signal (z-score),[1],-0.08
same,glycan array binding signal (z-score),[2],-0.086
same,glycan array binding signal (z-score),[3],-0.076
same,glycan array binding signal (z-score),[4],-0.089
same,glycan array binding signal (z-score),[5],-0.086
same,glycan array binding signal (z-score),[6],-0.082
same,glycan array binding signal (z-score),[7],-0.075
same,glycan array binding signal (z-score),[8],-0.005
same,glycan array binding signal (z-score),[9],-0.075
same,glycan array binding signal (z-score),[10],-0.006
same,glycan array binding signal (z-score),[11],-0.081
same,glycan array binding signal (z-score),[12],-0.072
same,glycan array binding signal (z-score),[13],-0.067
same,glycan array binding signal (z-score),[14],-0.084
same,glycan array binding signal (z-score),[15],-0.079
same,glycan array binding signal (z-score),[16],-0.084
same,glycan array binding signal (z-score),[17],-0.074
same,glycan array binding signal (z-score),[18],-0.08
same,glycan array binding signal (z-score),[19],-0.087
same,glycan array binding signal (z-score),[20],-0.079
same,glycan array binding signal (z-score),[21],-0.078
same,glycan array binding signal (z-score),[22],-0.079
same,glycan array binding signal (z-score),[23],-0.085
same,glycan array binding signal (z-score),[24],-0.071
same,glycan array binding signal (z-score),[25],-0.065
same,glycan array binding signal (z-score),[26],-0.055
same,glycan array binding signal (z-score),[27],-0.062
same,glycan array binding signal (z-score),[28],-0.078
same,glycan array binding signal (z-score),[29],-0.07
same,glycan array binding signal (z-score),[30],-0.078
same,glycan array binding signal (z-score),[31],-0.089
same,glycan array binding signal (z-score),Neu5Ac(a2-3)GalNAc,-0.08
same,glycan array binding signal (z-score),[32],-0.084
same,glycan array binding signal (z-score),[33],-0.082
same,glycan array binding signal (z-score),[34],-0.078
same,glycan array binding signal (z-score),[35],-0.049
same,glycan array binding signal (z-score),[36],-0.079
same,glycan array binding signal (z-score),Neu5Ac(a2-6)Gal,-0.082
same,glycan array binding signal (z-score),[37],-0.085
same,glycan array binding signal (z-score),Neu5Ac(a2-6)Gal(b1-4)Glc,-0.078
same,glycan array binding signal (z-score),[38],-0.082
same,glycan array binding signal (z-score),[39],-0.084
same,glycan array binding signal (z-score),[40],-0.086
same,glycan array binding signal (z-score),[41],-0.087
same,glycan array binding signal (z-score),[42],-0.078
